Over roughly 33,000 sequences, “E-score (-0.5 to 0.5)” has its median near -0.035; the highest 2% begin near 0.34. The list shows a part of the results.
Target: T1, Mot3 (UniProt P54785)
T1 sequence: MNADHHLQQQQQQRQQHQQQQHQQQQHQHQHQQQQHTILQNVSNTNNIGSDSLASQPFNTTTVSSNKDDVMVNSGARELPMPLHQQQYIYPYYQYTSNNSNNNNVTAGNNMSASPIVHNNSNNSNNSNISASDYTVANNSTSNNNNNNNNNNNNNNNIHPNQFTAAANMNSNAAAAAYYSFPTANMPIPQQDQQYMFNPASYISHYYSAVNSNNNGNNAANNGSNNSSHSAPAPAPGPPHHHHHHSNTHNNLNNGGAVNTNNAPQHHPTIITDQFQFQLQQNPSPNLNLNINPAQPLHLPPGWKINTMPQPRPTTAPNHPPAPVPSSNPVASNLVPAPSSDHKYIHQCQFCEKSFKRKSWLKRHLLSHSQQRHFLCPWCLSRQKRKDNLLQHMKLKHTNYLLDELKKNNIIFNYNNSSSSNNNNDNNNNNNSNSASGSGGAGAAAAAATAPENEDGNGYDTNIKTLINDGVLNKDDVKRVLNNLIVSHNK
Test: PBM E-score (8-mer binding enrichment) (E-score (-0.5 to 0.5)); higher = stronger / more preferred TF binding; most listed sequences are background and not binding sites
Conditions: protein concentration: 200 nM; construct: GST-full length
Procedure: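 Universal 'all 10-mer' protein binding microarrays (Agilent AMADID 015681) probed with GST-tagged S. cerevisiae TFs (full-length or DBD) made by in vitro transcription/translation (PURExpress), about 100-200 nM. Bound TF was detected with fluorescent anti-GST. Each ungapped 8-mer (which stands for itself and its reverse complement) is scored by the PBM enrichment score (E-score), a modified Wilcoxon-Mann-Whitney statistic from -0.5 to +0.5, computed with the Universal PBM Analysis Suite. Scale: above 0.35 generally sequence-specific binding.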

Sequence	PBM E-score
AGGCGCTA	0.336
CCGCCCAC	-0.195
CTTGCACC	-0.177
ACGCACAG	0.108
CACTCATG	-0.141
GACATTCC	0.0384
AATGATTA	0.183
AAGGATCC	0.136
CGTCTCGA	-0.108
GGCGACAC	-0.125
GTCTATGA	0.0543
CCGGCAAG	-0.0693
AAATATTG	-0.0284
AGGCTAAA	0.026
CACCGTTA	0.0483
GGCGGGTA	-0.1
AAGGATGT	0.189
AGTTCATC	-0.194
GCGATGCA	-0.283
GAAGATCA	-0.112
AACGTTAC	0.17
AACTATAC	0.0404
GCCAGGTA	0.105
CCAGGCTC	0.0491

Sequence	PBM E-score
AAGATCAC	-0.0705
GAGAGCCA	-0.194
CCGGGTTC	-0.11
TATCCGAA	-0.122
ACCGACAT	0.108
GTCGCGAA	-0.0793
ACCAAACC	-0.134
CGAACAGA	-0.00591
CGAGGATC	-0.106
AAGGGCTA	-0.171
GGGTGACC	-0.156
CCTGGGAG	-0.125
AAACCCGG	-0.154
AATTTCTA	0.206
GTGCCCCA	-0.248
GGGCGATA	-0.21
CAGATAAA	-0.0331
TCAGACAA	0.0569
ATGTCCTG	-0.014
AAAATCAT	0.109
AATGGAGT	-0.128
ACCTAGCT	-0.15
GACCACCA	-0.228
AGGTCTTC	-0.0921

Sequence	PBM E-score
GATCTTTA	0.121
ATTGGATG	-0.054
GGCCATTA	-0.0685
ACGCGATA	0.233
CAGTTGGC	-0.221
CACATACG	0.0727
CGTGTACC	0.277
AATCGCAG	-0.072
CGGTCTGA	-0.216
AATATCGG	-0.13
GTTGCCAA	-0.074
ATTAGTCA	0.016
AAGCAGCA	-0.26
AGAAATGC	0.042
ACTATTAA	0.079
ATTCTGGA	0.145
CGAGGAAC	0.285
ACTATACT	-0.102
TTCCCCAA	-0.155
CAAGTTAA	0.185
CTATCATA	0.037
AAACGACT	-0.241
CCCATTTC	-0.225
GTGCGCTA	0.0394

Sequence	PBM E-score
AAATAGCT	-0.207
CTGTTCAA	0.0328
CACGCTTC	0.146
ATGGGAAT	-0.00809
GCATGCCA	-0.264
CAAAGGCA	0.479
TCGTCCAA	-0.0369
TATTTTGA	0.0358
GCCATTTA	-0.0144
CAGCATCA	-0.141
AATGTTCG	-0.075
CCAGGCCA	-0.29
TAGACAAA	0.00859
CTGCATAC	0.0831
CCGTCCCC	-0.128
ATACTTTA	0.19
ATCTCTAG	-0.173
CCCAGCAG	-0.135
AACTGGCA	-0.146
CCGCATGC	-0.324
CGGTACCC	-0.277
GCGAATAC	0.117

— the supplement of paper PMC3334620
